# Laboratory results: the RNAGym collection of RNA variant scans (doi:10.7554/elife.90254)
# The source gives no read counts; variants with many changes may rest on few reads.
# B1: LINE1-mini (parent)
# chain: GGCAGAGCUCAACACAGCGUGGCAAAGUGGCUGUGGCUAGACUGCC
# Variants of: B1
# Test: self-cleavage, relative activity (ratio to wild type); higher = more cleavage; in vitro, sequencing; the parent is a self-cleaving ribozyme
row,Variant,self-cleavage
1,GGCAGAGAUCAACACAGAGUGGCAAAGUGGCUGUGGCUGGACUGAC [C8A C18A A39G C45A],0.03
2,GGAAGAGCUCAACACAGGGUGGCAAAGUGGCUGUGGCUAGAAUGCC [C3A C18G C42A],0.4
3,AGCAGAGCUGAACACAACGUGGCAACAUGGCUGUGGCUAGACUGCC [G1A C10G G17A A26C G27A],0.37
4,GGCAAAGCUUAACACAGCGUCGCAGAGUGGCUGUGGCUAGACUGCC [G5A C10U G21C A25G],0.01
5,GUCAGAGCUCAACACACCGUGGCAAAGUGGCUGUGCCUAGACUGCC [G2U G17C G36C],0.04
6,GGCAGAACUCAACAUAGCGUGGCAAUGUGGCUGUGACUAGACUGGC [G7A C15U A26U G36A C45G],0.23
7,GACAGAGCUCAACACAGGGUGGAAAAGUGGCUGUGGCUAGACUGCC [G2A C18G C23A],0.95
8,GGCAGAGCUCAACACAGCGUGGUAACGUAUCUGUGACCAGACUGCU [C23U A26C G29A G30U G36A U38C C46U],0.03
9,GGCAGAGCUCAACACAGUGUGGCAAAGCUGCUGUGGAUAGACUGCC [C18U U28C G29U C37A],0.09
10,GGCAGAGCUCAACACAGCGUGGGAAAGUGGCGGUGGCUAGAUUGCC [C23G U32G C42U],0.04
11,GGCAGAGCUCAACACAUCGUGGCAAAGUGGCUGUGGUGAGACUGCC [G17U C37U U38G],0.03
12,GGCAGAACUCAACACAUCGUGGCAAAGUGGCUGUGGCUAAACUGCC [G7A G17U G40A],0.06
13,GGUAAAGCUCAACACAGCGUUGCAAAGAGGCUGUGGCUAUACUGCC [C3U G5A G21U U28A G40U],0.05
14,GGCAGAGCACAAGACAGCGUGGCAAAGUGGCUGUGGCCAAACUGCC [U9A C13G U38C G40A],0.07
15,GGCAGAGCUCGACACAGCGUGGCAAAUUGGCUGUGGCUAGACCGCC [A11G G27U U43C],0.02
16,GGCAGAGCUCAACACAGCGUGGCAAAUUCGCAGUGGCUAGAUUGCC [G27U G29C U32A C42U],0.05
17,GGCAGAGCUCAACACAGCGUGGCAUAGGGGCUGUGGCUAGACGGCC [A25U U28G U43G],0.15
18,GUCGGAGCGCAACACAGCGUGGCAAAGAGGCUGUGGCUAGACUGCC [G2U A4G U9G U28A],0.02
19,GGAAGAGCUCAACACAGCGUGGCAAAGGUGCUGUGGCUAGACUGCC [C3A U28G G29U],0.18

row,Variant,self-cleavage
1,GGCGGAGCGCAACACAGCGUGCCAAAGUGGCUGUGGCUAGACUGCC [A4G U9G G22C],0.08
2,GACAGAGCUCAAGACUGCGUGGCAAAGCGGCUGUGGUUAGACUGCC [G2A C13G A16U U28C C37U],0.49
3,GGAAGAGCUCAACACAGCGUGGUAAAGUGGCUAUGGCUAGACUGUC [C3A C23U G33A C45U],0.37
4,GGCAGAGCUCAACACAGCGUGGCAAAGUGGGUGUGGCAAGAAUGCC [C31G U38A C42A],0.01
5,GGCAGAGCUUAACGCAGGGUGGGAAAGUGGCUGUGGCCAGACUGCC [C10U A14G C18G C23G U38C],0.01
6,GGCAGAGCUAAACUCAGGGUGGCAAAGUGGCUGUGGCUAGACAGCC [C10A A14U C18G U43A],0
7,GGCAGAGCUCCACUCAGCGUGGCAAAGUGGAUGUGGCUAGACUGUC [A11C A14U C31A C45U],0.01
8,GGCAGAGCUCAACUAAGCGGGGCAAAGUGGCUUUGGCUAGACUGCA [A14U C15A U20G G33U C46A],0.04
9,GGCAGAGCUCCAAAAAGCGUGGCAAAGUGGCUGUGGCUAGACUGCC [A11C C13A C15A],0.01
10,GGCCGAGCUCAACACAGCGUGGCAAAGCGGCGGUGGUUAGAAUGCC [A4C U28C U32G C37U C42A],0.08
11,GGCAUAGCUCAACACAUCGUCGCAAAGUGGCUGUGGCUAGACUGCC [G5U G17U G21C],0.1
12,GGCAGAGCUCAACACUGCAUGGCAAAUUGGCUGUGGCUAGACUGCC [A16U G19A G27U],0.14
13,GGAAGAGCUUAACACAGCGUGGCAAAGAGGUUGUGGCUAGACUGGC [C3A C10U U28A C31U C45G],0.07
14,GGCAGAGCUCAACACAGCGUGGCAAAAUGGCUGUGGCUAUACUGCG [G27A G40U C46G],0.26
15,GGCAGAUCUCAACACAGCCUGGCAAAGUGGCUGUGGCUGGACUGCC [G7U G19C A39G],0.03
16,GGCAGGGCUCUACAAAGCGUCGCAAAGUGGCUGUGGCUAGACUGCC [A6G A11U C15A G21C],0.01
17,GGCAGAGAUCAACGCAGCGUGGCAUAGUGGCUGUGGCUAGACUGCC [C8A A14G A25U],0.07
18,GGCAGAGCUCAAAGCAGCGUGGCAAAGUGGCUGGGGCUAGACUGAC [C13A A14G U34G C45A],0.02
19,GGCAGAGCUCAAAACAGCGUGGCAAUGAUGCUGUGGCUAGACUGCC [C13A A26U U28A G29U],0.03

row,Variant,self-cleavage
1,GGCAGAGCUGAACACAGCGUGGCCAAGUUGCUGUGGCUAGACUGCC [C10G A24C G29U],0.16
2,GGCUGAGCUCAACACAGCGUGGCAUAGUGGAUGUGGCUAGUCCGCC [A4U A25U C31A A41U U43C],0.09
3,GGCAGAGCUCAACACAGCGUGGCAAAGUGGCUGUGGCUAGAUUACU [C42U G44A C46U],0.12
4,GGCAGAGCUCAACACAGCCUGGCAGAGUGGCCGUGGCUAGACUUCC [G19C A25G U32C G44U],0.01
5,GGCAGAGACCAACACAGCGUGGCAAAGAGGCUGCGGCUAGACUGCA [C8A U9C U28A U34C C46A],0.15
6,AGCAUAGCUAAACACAGCGUGGCAAAGUGGCCGAGGCUAGACUGCC [G1A G5U C10A U32C U34A],0.04
7,GGCACAGCUCAAGAAAGCGUGGCACAGUGGCUGUGGCUAGACUGCC [G5C C13G C15A A25C],0.07
8,GUCAAAACUCAACACAGCGUGGCAAGGUCGCUGUGGCUAGACUGCC [G2U G5A G7A A26G G29C],0.15
9,GGCAGAGCUCAACACAGCGUGGCUAAGUGGCUCUGGCUAAACUGCC [A24U G33C G40A],0.05
10,UGAAGAGGUCAGCACAGCGCGGCAAAGUGGCUGUGGCUAGACUGCC [G1U C3A C8G A12G U20C],0.01
11,GGCAGAGCUCAACACAGCGUGGCAAAGUAGCUGUGGGCAGGCUGCC [G29A C37G U38C A41G],0.02
12,GGCAGAGCUCAACACAGCGUUGCAAAGUGGCUGUUCCUAUACUGCC [G21U G35U G36C G40U],0.1
13,GGCAGAGCUCAAAACAGCCGUGCAAAGUGGCGGUGGCUAGACUGCC [C13A G19C U20G G21U U32G],0.16
14,GGCAGAGCUCCACACAGCAUGGCAGACUGGCUGUGGCUAGACUGCA [A11C G19A A25G G27C C46A],0.03
15,GGCAGAGCUCAACACAGCGUGGCAAAGUUGCUGUGGCUAGACAUCU [G29U U43A G44U C46U],0.03
16,GGAAGAGGCCAACACAGCGUAGCAAAGUGGCUGUGGCUAGACUGCC [C3A C8G U9C G21A],0.07
17,GGCAGAGGUCAACACAGCGUUGCAAAGUGGCUGGGGCUAGACUGCC [C8G G21U U34G],0.02
18,GGCAGAGCUCAACAUAGCGAGGCAACGUGGCUGUGGCUAGACUGCC [C15U U20A A26C],1.81
